# Measured values taken from the supplement of paper PMC8728848.
# This is one part of the list.
# B1: MAL-II (Maackia amurensis), P93248 (protein)
# chain: ATSNSKPTQVLLATFLTFFFLLLNNVNSSDELSFTINNFVPNEADLLFQGEASVSSTGVLQLTRVENGQPQQYSVGRALYAAPVRIWDNTTGSVASFSTSFTFVVKAPNPTITSDGLAFFLAPPDSQIPSGRVSKYLGLFNNSNSDSSNQIVAVEFDTYFGHSYDPWDPNYRHIGIDVNGIESIKTVQWDWINGGVAFATITYLAPNKTLIASLVYPSNQTSFIVAASVDLKEILPEWVRVGFSAATGYPTQVETHDVLSWSFTSTLEANSDAATENNVHIARYTA
# Legend:
# Test in all cases: glycan array binding signal (z-score within array); higher = stronger binding
# Details in all cases: glycan notation: IUPAC condensed, linker removed
# [1] = target: Fuc(a1-2)[GalNAc(a1-3)]Gal(b1-4)GlcNAc(b1-6)GalNAc
# In short: (§1)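 From the Consortium for Functional Glycomics database, 3228 arrays were curated, keeping only those whose protein sequence was available. Binding is given as a within-array Z-score averaged across arrays sharing a protein sequence and across linkers. Negative Z-scores can be read as non-binding.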
# [2] = target: Fuc(a1-2)[GalNAc(a1-3)]Gal(b1-4)[Fuc(a1-3)]GlcNAc
# In short: as §1
# [3] = target: Fuc(a1-2)[GalNAc(a1-3)]Gal(b1-4)[Fuc(a1-3)]GlcNAc(b1-3)GalNAc
# In short: as §1
# [4] = target: Fuc(a1-2)[GalNAc(a1-4)]Gal(b1-4)GlcNAc
# In short: as §1
# [5] = target: Fuc(a1-2)[GalNAc(b1-3)]Gal
# In short: as §1
# Fuc(a1-3)GlcNAc = target: Fuc(a1-3)GlcNAc
# In short: as §1
# [6] = target: Fuc(a1-3)[Gal(b1-4)]Glc6S
# In short: as §1
# [7] = target: Fuc(a1-3)[Gal(b1-4)]GlcNAc
# In short: as §1
# [8] = target: Fuc(a1-3)[Gal(b1-4)]GlcNAc(b1-2)Man
# In short: as §1
# [9] = target: Fuc(a1-3)[Gal(b1-4)]GlcNAc(b1-2)Man(a1-3)[Fuc(a1-3)[Gal(b1-4)]GlcNAc(b1-2)Man(a1-6)]Man(b1-4)GlcNAc(b1-4)GlcNAc
# In short: as §1
# [10] = target: Fuc(a1-3)[Gal(b1-4)]GlcNAc(b1-2)Man(a1-3)[Fuc(a1-3)[Gal(b1-4)]GlcNAc(b1-2)Man(a1-6)]Man(b1-4)GlcNAc(b1-4)[Fuc(a1-6)]GlcNAc
# In short: as §1
# [11] = target: Fuc(a1-3)[Gal(b1-4)]GlcNAc(b1-3)Gal(b1-3)[Fuc(a1-4)]GlcNAc
# In short: as §1
# [12] = target: Fuc(a1-3)[Gal(b1-4)]GlcNAc(b1-3)Gal(b1-4)[Fuc(a1-3)]GlcNAc
# In short: as §1
# [13] = target: Fuc(a1-3)[Gal(b1-4)]GlcNAc(b1-3)Gal(b1-4)[Fuc(a1-3)]GlcNAc(b1-3)Gal(b1-4)[Fuc(a1-3)]GlcNAc
# In short: as §1
# [14] = target: Fuc(a1-3)[Gal(b1-4)]GlcNAc(b1-3)GalNAc
# In short: as §1
# [15] = target: Fuc(a1-3)[Gal(b1-4)]GlcNAc(b1-4)Gal(b1-4)[Fuc(a1-3)]GlcNAc
# In short: as §1
# [16] = target: Fuc(a1-3)[Gal(b1-4)]GlcNAc(b1-4)Gal(b1-4)[Fuc(a1-3)]GlcNAc(b1-4)Gal(b1-4)[Fuc(a1-3)]GlcNAc
# In short: as §1
# [17] = target: Fuc(a1-3)[Gal(b1-4)]GlcNAc(b1-6)GalNAc
# In short: as §1
# [18] = target: Fuc(a1-3)[Gal(b1-4)]GlcNAc(b1-6)[Gal(b1-3)GlcNAc(b1-3)]Gal(b1-4)Glc
# In short: as §1
# [19] = target: Fuc(a1-3)[Gal(b1-4)]GlcNAc6S
# In short: as §1
# [20] = target: Fuc(a1-3)[Gal3S(b1-4)]Glc
# In short: as §1
# [21] = target: Fuc(a1-3)[Gal3S(b1-4)]GlcNAc
# In short: as §1
# [22] = target: Fuc(a1-3)[Gal3S(b1-4)]GlcNAc6S
# In short: as §1
# [23] = target: Fuc(a1-3)[GalNAc(b1-4)]GlcNAc
# In short: as §1
# [24] = target: Fuc(a1-3)[GalNAc(b1-4)]GlcNAc6S
# In short: as §1
# Fuc(a1-4)GlcNAc = target: Fuc(a1-4)GlcNAc
# In short: as §1
# Fuc(b1-3)GlcNAc = target: Fuc(b1-3)GlcNAc
# In short: as §1
# Gal(a1-2)Gal = target: Gal(a1-2)Gal
# In short: as §1
# Gal(a1-3)Gal = target: Gal(a1-3)Gal
# In short: as §1
# Gal(a1-3)Gal(b1-3)GlcNAc = target: Gal(a1-3)Gal(b1-3)GlcNAc
# In short: as §1
# [25] = target: Gal(a1-3)Gal(b1-3)GlcNAc(b1-2)Man
# In short: as §1
# [26] = target: Gal(a1-3)Gal(b1-3)GlcNAc(b1-2)Man(a1-3)[Gal(a1-3)Gal(b1-3)GlcNAc(b1-2)Man(a1-6)]Man(b1-4)GlcNAc(b1-4)GlcNAc
# In short: as §1
# [27] = target: Gal(a1-3)Gal(b1-3)GlcNAc(b1-3)GalNAc
# In short: as §1
# [28] = target: Gal(a1-3)Gal(b1-3)GlcNAc(b1-6)GalNAc
# In short: as §1
# [29] = target: Gal(a1-3)Gal(b1-3)[Fuc(a1-4)]GlcNAc(b1-2)Man(a1-3)[Gal(a1-3)Gal(b1-3)[Fuc(a1-4)]GlcNAc(b1-2)Man(a1-6)]Man(b1-4)GlcNAc(b1-4)GlcNAc
# In short: as §1
# Gal(a1-3)Gal(b1-4)Glc = target: Gal(a1-3)Gal(b1-4)Glc
# In short: as §1
# Gal(a1-3)Gal(b1-4)GlcNAc = target: Gal(a1-3)Gal(b1-4)GlcNAc
# In short: as §1
binder,measurement,setting,value
B1,glycan array binding signal (z-score),[1],-0.23
same,glycan array binding signal (z-score),[2],-0.057
same,glycan array binding signal (z-score),[3],1.84
same,glycan array binding signal (z-score),[4],-0.242
same,glycan array binding signal (z-score),[5],-0.209
same,glycan array binding signal (z-score),Fuc(a1-3)GlcNAc,-0.246
same,glycan array binding signal (z-score),[6],-0.152
same,glycan array binding signal (z-score),[7],-0.236
same,glycan array binding signal (z-score),[8],-0.179
same,glycan array binding signal (z-score),[9],-0.147
same,glycan array binding signal (z-score),[10],0.714
same,glycan array binding signal (z-score),[11],-0.178
same,glycan array binding signal (z-score),[12],-0.217
same,glycan array binding signal (z-score),[13],-0.085
same,glycan array binding signal (z-score),[14],-0.171
same,glycan array binding signal (z-score),[15],-0.23
same,glycan array binding signal (z-score),[16],-0.249
same,glycan array binding signal (z-score),[17],-0.082
same,glycan array binding signal (z-score),[18],-0.034
same,glycan array binding signal (z-score),[19],-0.222
same,glycan array binding signal (z-score),[20],-0.231
same,glycan array binding signal (z-score),[21],-0.195
same,glycan array binding signal (z-score),[22],0.328
same,glycan array binding signal (z-score),[23],-0.187
same,glycan array binding signal (z-score),[24],-0.208
same,glycan array binding signal (z-score),Fuc(a1-4)GlcNAc,-0.241
same,glycan array binding signal (z-score),Fuc(b1-3)GlcNAc,-0.216
same,glycan array binding signal (z-score),Gal(a1-2)Gal,-0.208
same,glycan array binding signal (z-score),Gal(a1-3)Gal,-0.164
same,glycan array binding signal (z-score),Gal(a1-3)Gal(b1-3)GlcNAc,-0.205
same,glycan array binding signal (z-score),[25],-0.305
same,glycan array binding signal (z-score),[26],1.08
same,glycan array binding signal (z-score),[27],-0.197
same,glycan array binding signal (z-score),[28],-0.242
same,glycan array binding signal (z-score),[29],0.41
same,glycan array binding signal (z-score),Gal(a1-3)Gal(b1-4)Glc,-0.167
same,glycan array binding signal (z-score),Gal(a1-3)Gal(b1-4)GlcNAc,-0.135
